This is one part of the list.
System: S. aureus RN4220
Assay: growth inhibition call (relative growth <= 0.2)
Details: 50 µM

Growth inhibition call, inactive:
C[C@@H]1CN([C@@H](C)CO)C(=O)c2cc(NS(C)(=O)=O)ccc2O[C@@H]1CN(C)C(=O)NC1CCCCC1
C[C@@H]1CN([C@@H](C)CO)C(=O)c2cc(NC(=O)Nc3cccc4ccccc34)ccc2O[C@@H](C)CCCCO[C@@H]1CN(C)C
C[C@H](CO)N1C[C@H](C)[C@H](CN(C)Cc2ccc(F)cc2)OCc2ccccc2-c2c(n(C)c3ccccc23)C1=O
CCOC(=O)N[C@H]1CCS(=O)(=O)C1
C[C@@H]1CN([C@H](C)CO)C(=O)Cc2cc(NS(=O)(=O)c3cn(C)cn3)ccc2O[C@@H]1CN(C)C(=O)Nc1ccc(F)cc1
C[C@H]1CN([C@@H](C)CO)S(=O)(=O)c2ccc(C#CCN(C)C)cc2O[C@H]1CN(C)Cc1ccncc1
CC[C@H](C)[C@@H]([C@@H](CC(=O)N1CCC[C@H]1[C@H](OC)[C@@H](C)C(=O)N[C@@H](Cc1ccccc1)c1nccs1)OC)N(C)C(=O)[C@@H](NC(=O)[C@H](C(C)C)N(C)C)C(C)C
CC(C)N[C@H]1CCS(=O)(=O)C1
CC(C)NC(=O)Nc1cccc2c1O[C@@H](CN(C)C(=O)Nc1ccc3c(c1)OCO3)[C@@H](C)CN([C@H](C)CO)C2=O
COc1ccc(S(=O)(=O)N(C)C[C@H]2Oc3ccc(NS(=O)(=O)c4c(C)noc4C)cc3CC(=O)N([C@@H](C)CO)C[C@@H]2C)cc1
C[C@@H]1CCCCO[C@H](CN(C)C(=O)Nc2ccccc2)[C@@H](C)CN([C@@H](C)CO)C(=O)c2cc(NC(=O)C3CCCCC3)ccc2O1
CCN(CC)S(=O)(=O)c1nnc[nH]1
C[C@@H]1CCCCO[C@@H](CN(C)C(=O)Nc2ccc(F)cc2)[C@H](C)CN([C@@H](C)CO)C(=O)c2cc(NS(=O)(=O)c3ccc(Cl)cc3)ccc2O1
C[C@@H]1CCCCO[C@@H](CN(C)C(=O)Nc2ccc(F)cc2)[C@@H](C)CN([C@H](C)CO)C(=O)c2cc(NC(=O)CCCCCC(=O)Nc3ccccc3N)ccc2O1
CN(C)CC(=O)N[C@H]1CC[C@@H](CCn2cc(CN(C)C)nn2)O[C@@H]1CO
C[C@@H]1CN([C@@H](C)CO)C(=O)c2cc(NS(=O)(=O)c3cn(C)cn3)ccc2O[C@@H]1CN(C)CC1CC1
C[C@H]1CN([C@@H](C)CO)C(=O)c2cccc(NC(=O)c3nc4ccccc4s3)c2O[C@H]1CN(C)C(=O)Nc1ccc(C(F)(F)F)cc1
CNC(=O)C[C@@H]1CC[C@@H]2[C@H](COC[C@@H](O)CN2C(=O)Nc2ccc3c(c2)OCO3)O1
C[C@H](CO)N1C[C@H](C)[C@@H](CN(C)Cc2ccc3c(c2)OCO3)Oc2ccc(NC(=O)CCCN(C)C)cc2CC1=O
C[C@H](CO)N1C[C@H](C)[C@@H](CN(C)CC2CCCCC2)Oc2c(NC(=O)Nc3ccc(F)cc3)cccc2C1=O
CN(C)Cc1cn(CC[C@H]2CC[C@H](NS(=O)(=O)c3ccccc3)[C@H](CO)O2)nn1
Cc1noc(C)c1S(=O)(=O)Nc1cccc2c1O[C@H](CN(C)C(=O)NC(C)C)[C@H](C)CN([C@H](C)CO)C2=O
C[C@@H]1CN([C@H](C)CO)C(=O)c2cc(NC(=O)NC3CCCCC3)ccc2O[C@@H]1CN(C)C(=O)Nc1ccc(C(F)(F)F)cc1
C[C@H](CO)N1C[C@H](C)[C@@H](CN(C)Cc2ccc(Cl)c(Cl)c2)Oc2ccc(NC(=O)Nc3cccc4ccccc34)cc2C1=O
Cc1ccc(S(=O)(=O)N(C)C[C@H]2OCCCC[C@H](C)Oc3ccc(NS(C)(=O)=O)cc3C(=O)N([C@H](C)CO)C[C@@H]2C)cc1
C[C@@H]1CCCCO[C@H](CN(C)CC2CCCCC2)[C@@H](C)CN([C@H](C)CO)C(=O)c2cc(NC(=O)CCCCCC(=O)Nc3ccccc3N)ccc2O1
C[C@H]1CN([C@@H](C)CO)C(=O)c2cccc(NS(=O)(=O)c3ccc(F)cc3)c2O[C@@H]1CN(C)S(=O)(=O)c1cn(C)cn1
C[C@H]1CN([C@@H](C)CO)C(=O)Cc2cc(NC(=O)Cn3cnnn3)ccc2O[C@@H]1CN(C)CC1CCCCC1
